Source: PMC4336329 (PLoS ONE, 2015)
The campaign covered roughly 310,000 compounds. About 14,000 (4.5%) showed an effect of 50% or more. Effects have a minus sign here. This is one part of the list.

What follows are compounds tested against human ether-à-go-go-related gene (hERG) potassium channel (human, UniProt Q12809) (assay: primary screen, population patch clamp on CHO cells stably expressing hERG).
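Also: peak tail current of the secondary pulse compared with the same well before compound.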

Sequence of human ether-à-go-go-related gene (hERG) potassium channel (Q12809 whole entry, looked up): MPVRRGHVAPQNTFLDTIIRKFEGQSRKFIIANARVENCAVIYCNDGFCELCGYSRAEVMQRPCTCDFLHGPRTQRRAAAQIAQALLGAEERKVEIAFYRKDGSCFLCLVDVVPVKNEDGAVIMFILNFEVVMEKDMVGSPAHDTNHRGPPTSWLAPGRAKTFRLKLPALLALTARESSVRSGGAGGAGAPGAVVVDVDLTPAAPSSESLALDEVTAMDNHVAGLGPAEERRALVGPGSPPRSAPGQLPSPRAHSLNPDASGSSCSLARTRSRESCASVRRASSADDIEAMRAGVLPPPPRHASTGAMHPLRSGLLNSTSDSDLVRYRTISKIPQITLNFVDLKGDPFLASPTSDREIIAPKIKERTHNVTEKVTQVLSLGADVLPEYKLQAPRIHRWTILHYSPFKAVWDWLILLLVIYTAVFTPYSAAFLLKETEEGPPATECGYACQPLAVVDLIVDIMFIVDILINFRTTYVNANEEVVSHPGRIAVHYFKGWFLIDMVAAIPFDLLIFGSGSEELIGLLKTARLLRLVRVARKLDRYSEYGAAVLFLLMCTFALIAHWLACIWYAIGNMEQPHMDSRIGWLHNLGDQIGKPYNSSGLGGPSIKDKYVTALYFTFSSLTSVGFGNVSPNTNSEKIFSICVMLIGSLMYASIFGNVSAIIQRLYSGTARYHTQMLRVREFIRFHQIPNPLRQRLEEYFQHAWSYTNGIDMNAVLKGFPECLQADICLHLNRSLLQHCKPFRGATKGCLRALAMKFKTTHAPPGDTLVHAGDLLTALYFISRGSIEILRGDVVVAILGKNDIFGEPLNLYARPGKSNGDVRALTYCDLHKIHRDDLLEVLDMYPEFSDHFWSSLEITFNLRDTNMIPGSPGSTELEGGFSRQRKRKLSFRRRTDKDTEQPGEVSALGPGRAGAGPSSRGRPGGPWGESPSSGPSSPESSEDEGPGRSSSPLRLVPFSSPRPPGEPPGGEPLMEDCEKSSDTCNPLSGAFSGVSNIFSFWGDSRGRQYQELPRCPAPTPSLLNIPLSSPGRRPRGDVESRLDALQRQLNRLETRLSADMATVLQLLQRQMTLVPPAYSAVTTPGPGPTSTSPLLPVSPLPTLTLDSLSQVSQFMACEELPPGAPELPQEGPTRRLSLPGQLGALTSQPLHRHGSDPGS

Row | Structure (SMILES) | hERG current change (%, negative = inhibition) at 10uM [%]
1 | O=C(COC(=O)CCSc1ccccc1)Nc1ccc(F)cc1Cl | 6.44
2 | Cc1ccc2c(c1)CCCN2C(=O)c1ccc2c(c1)OCO2 | -4.53
3 | CC(=O)N1CCc2[nH]c3ccc(C)cc3c2C1 | -5.4
4 | CCC(=NCCN1CCOCC1)c1c(O)n(-c2ccccc2C)c(=O)[nH]c1=O | 17.3
5 | COC(=O)C1=NN(C(C)=O)C2(CC(=O)N(c3cc(C)cc(C)c3)C2=O)C1 (centres unmarked) | -18.4
6 | CCNC(=S)NNC(=O)c1ccoc1C | 8.97
7 | Cc1nc2ccc(NC(=O)NCc3ccco3)cc2s1 | 20.8
8 | O=C(c1nn2c(C(F)(F)F)cc(-c3ccccc3)nc2c1Cl)N1CCOCC1 | -9.9
9 | CCN(CC)CCCNC(=O)c1sc2ncn(CC(=O)Nc3ccc(C)c(Cl)c3)c(=O)c2c1C | -13
10 | Cc1cc(C(=O)COC(=O)c2ccncc2)c(C)n1CCc1ccc(F)cc1 | 8.96
11 | Nc1nc(C(=O)N2CCOCC2)nn1C(=O)c1ccc(Cl)cc1 | 6.43
12 | Cc1cc(=O)oc2cc(OC(=O)c3ccccc3)ccc12 | 15.3
13 | CCOC(=O)C1=C(CS(=O)(=O)c2ccc(C)cc2)NC(=O)NC1c1cc(OC)c(OC)c(OC)c1 (centres unmarked) | -29.8
14 | CNC(=O)COC(=O)/C=C/c1ccco1 | 8.03
15 | Cc1ccc(NC(=O)COc2coc(CN3CCN(Cc4ccccc4)CC3)cc2=O)cc1 | -73.3
16 | CCN(CC(=O)NCc1ccc(Cl)cc1)C(=O)NCc1ccc(Cl)cc1 | -48.4
17 | COc1cc(-c2nnc(COc3ccc4ccccc4c3)o2)cc(OC)c1OC | -0.525
18 | Cc1onc(-c2ccccc2)c1C(=O)OCc1nnc(-c2ccc([N+](=O)[O-])cc2)o1 | -71.5
19 | CN(CCc1cnn(C)c1)Cc1cn(C)nc1-c1ccccc1F | 9.85
20 | O=C(CCn1cnc2ccccc21)N/N=C/c1ccc(O)cc1 | 10.8
21 | O=C(Nc1ccccc1F)c1ccc2nc(N3C(=O)CCC3=O)sc2c1 | 8.18
22 | Cc1ccc(OCCN(C)C(=O)C2CCC(=O)N(Cc3ccccc3F)C2)cc1 (centres unmarked) | -42.9
23 | O=C(CCN1CCN(CCO)CC1)Nc1cccc(Br)c1 | -19

Row | Structure (SMILES) | hERG current change (%, negative = inhibition) at 10uM [%]
24 | CC(NC(=O)C1CCC(=O)N1Cc1ccccc1Cl)c1ccccc1 (centres unmarked) | 12.8
25 | Cc1c(C(=O)NCCN2CCOCC2)oc2ccc(Br)cc12 | -15
26 | Cc1cccc(C(=O)NCC(=O)Nc2ccc(S(=O)(=O)Nc3nc(C)cc(C)n3)cc2)c1 | 5.47
27 | CS(=O)(=O)N1CCC(C(=O)Nc2c(F)cccc2F)CC1 | -3.57
28 | Cc1cccc(NC(=O)Cn2nnc(-c3ccc(CN4CCCC4)cc3)n2)c1C | -14
29 | COc1ccc(N2C(=O)CC(C3CCCO3)C2=O)cc1 (centres unmarked) | 25
30 | COC(=O)CCc1sc(Nc2ccc(Br)cc2)nc1-c1ccc(OC)cc1 | 4.9
31 | Cc1ccc(C)c(/C(O)=C2\C(=O)C(=O)N(Cc3cccnc3)C2c2cccnc2)c1 (centres unmarked) | -36.4
32 | CC(C)(C)C(=O)Nc1ccc(N=Nc2ccccc2)cc1 | -0.305
33 | O=C(Nc1ccn(Cc2ccccc2)n1)c1cccc(Cn2cc([N+](=O)[O-])cn2)c1 | -21.9
34 | O=C(O)/C=C\C(=O)Nc1ccccc1N1CCN(c2ccccc2)CC1 | 14.7
35 | CN(C)c1ccc(N2CC(C)(C)C2=O)cc1 | 7.87
36 | C=CCNC(=O)/C(C#N)=C/c1c(C)nn(-c2ccccc2)c1Cl | -20
37 | OCCNc1c2ccccc2nc2c(F)c(F)c(F)c(F)c12 | 14.6
38 | COc1cc2cc(C(C)(C)O)oc(=O)c2cc1OC | 13
39 | Cc1cc(C)n2nc(C(=O)N3CCCC(Nc4ccc(F)c(F)c4)C3)cc2n1 (centres unmarked) | 5.05
40 | CCc1ccc(S(=O)(=O)Nc2ccc(Cl)cn2)cc1 | 12.5
41 | CN(Cc1ccccc1)CC(O)COc1ccc(CNCc2cc3ccccc3s2)cc1 (centres unmarked) | -25.7
42 | CCC1SC(=Nc2cccc(C)c2)NC1=O (centres unmarked) | 10.2
43 | C=C1C(=O)O[C@H]2[C@H]1[C@@H](O)CC(=C)[C@@H]1CC(=O)[C@@H](C)[C@H]21 | 13.4
44 | N#CCSc1ccccc1NC(=O)COC(=O)CCN1C(=O)C2CC=CCC2C1=O (centres unmarked) | -14.6
45 | c1ccc(Oc2ccc(-c3ccnc4nc(N5CCN(c6ccccc6)CC5)nn34)cc2)cc1 | 8.95
46 | CSc1ccccc1-n1nnnc1SCC(=O)Nc1ccccc1C | -10.3

Row | Structure (SMILES) | hERG current change (%, negative = inhibition) at 10uM [%]
47 | COc1ccc(-c2nnc(SCC(=O)NCCc3ccc(S(N)(=O)=O)cc3)o2)cc1OC | 5.73
48 | N#Cc1c2c(nc(N)c1-c1ccccc1)CCCCC2 | 7.02
49 | Cc1[nH]nc(SCC(=O)N2CCC(C)CC2)c1[N+](=O)[O-] | 11.6
50 | CCC(=O)NCCCNc1nc2c(C)cccc2cc1C#N | 14.1
51 | CC1CCC(NC(=O)C2CCN(c3c4c(nc5ncnn35)CCC4)CC2)CC1 (centres unmarked) | -19.3
52 | COc1ccc(-n2nc(C(=O)NCC(=O)NC3CCCCCC3)c3ccccc3c2=O)cc1OC | -10
53 | CN(C)CCOc1cccc(Cl)c1.O=C(O)C(=O)O | 1.34
54 | Cc1ccccc1CS(=O)(=O)c1ccc(C(=O)N2CCOCC2)cc1[N+](=O)[O-] | -15.5
55 | COc1cc(C2SCC(=O)Nc3c2c(=O)[nH]n3C2CCCCCC2)cc(OC)c1OC (centres unmarked) | -2.29
56 | Cc1ccc(-c2nn(CC(=O)N3CCOCC3)c(=O)c3ccccc23)cc1S(=O)(=O)N(C)C | -22.6
57 | O=c1c2[nH]c3ccc(F)cc3c2ncn1CC1CCCO1 (centres unmarked) | -16
58 | O=C(NCCc1c[nH]c2ccccc12)c1cc(S(=O)(=O)N2CCCCC2)ccc1N1CCOCC1 | -6.08
59 | Br.N=c1scc(-c2ccccc2)n1/N=C/c1ccco1 | 2.71
60 | Fc1ccc(NC(=S)N2CCc3ccccc3C2)c(F)c1 | 12.4
61 | CCc1nnc(NC(=O)c2ccc(S(=O)(=O)N(C)c3ccccc3)cc2)o1 | -5.32
62 | CC(C)(C)OC(=O)NNC(=O)c1ccc(Cl)cc1 | 11.7
63 | CC(C)C(=O)Nc1cccc(S(=O)(=O)c2cccc(NC(=O)C(C)C)c2)c1 | 6.43
64 | CC1=C(C/C=C(\C)CCC[C@H](C)CCC[C@H](C)CCCC(C)C)C(=O)c2ccccc2C1=O | 12.5
65 | O=NN(CCCl)C(=O)NCCCl | 15.4
66 | O=C(Nc1nc2c(s1)CCc1ccccc1-2)c1cccs1 | -5.72
67 | COc1cc(/C=N/N2C(=O)CSC2=S)ccc1O | 8.36
68 | CCOc1cc(Cl)c(NC(=O)CC)cc1OCC | 14.4
69 | Cc1cccc(NC(=O)c2ccccc2OCC(=O)N2CCOCC2)c1C | -6.62

Row | Structure (SMILES) | hERG current change (%, negative = inhibition) at 10uM [%]
70 | O=C(NC(=S)Nc1nc2c(s1)CCCC2)c1ccccc1 | 18.4
71 | COc1ccccc1C(CCNCc1ccccc1)c1ccc(OC(C)C)cc1 (centres unmarked) | -59.3
72 | O=C(Cn1nnc(-c2ccccc2-n2cnnn2)n1)NCc1ccccc1 | -5.93
73 | CN(C)c1ccc(C2C=C(c3ccc(Cl)cc3OC(F)F)Nc3ncnn32)cc1 (centres unmarked) | -15
74 | Cc1cccc(NC(=O)C2CCN(C(=O)c3ccc(Cl)cc3)CC2)n1 | -51.5
75 | COc1ccc(-c2nc(CN(Cc3cnn(C)c3)C(C)C)c(C)o2)c(OC)c1 | -37.9
76 | CCCCC(CC)CNC(=O)CN1C(=O)NC2(CCc3ccccc32)C1=O (centres unmarked) | -2.96
77 | COC(=O)CCCC(=O)N1CCC(CCC(=O)NC2CC2)CC1 | 16.6
78 | Cc1cc(C)cc(C(=O)N2CC(C)OC(C)C2)c1 (centres unmarked) | -0.601
79 | COC(=O)c1c(NC(=O)C(C)(C)C)csc1C | -1.4
80 | CCN(N=Nc1cccc([N+](=O)[O-])c1)c1cccc([N+](=O)[O-])c1 | -7.75
81 | COc1cccc(-n2cc(CNCc3cn(C)nc3-c3ccccc3F)cn2)c1 | -19.3
82 | Cc1oc(-c2cccc(Cl)c2)nc1CN1CCCC(C(=O)NC(C)c2ccc3c(c2)OCCO3)C1 (centres unmarked) | -57.5
83 | Cn1c(SCC(=O)N2CCCCCC2)nnc1-c1ccco1 | 14
84 | COc1ccccc1N1C(=O)C2C3CC(c4ccccc4)C(C3)C2C1=O (centres unmarked) | -5.22
85 | CC(C)(C)C(=O)Nc1ccc(Cc2ccncc2)cc1 | 12.1
86 | CCOc1ccc(Nc2nc3c(C)cccc3cc2C#N)cc1 | 4.76
87 | COc1ccc2sc(-c3ccccc3OC)c(-c3ccc(O)cc3)c2c1 | 15.1
88 | CCOCCn1c(=NC(=O)CSCC(=O)Nc2cc(C)on2)sc2cc(OC)ccc21 | -39.8
89 | CC(C)C(NC(=O)c1ccco1)C(=O)OCc1cc([N+](=O)[O-])cc2c1OCOC2 (centres unmarked) | -11.3
